Experimental data taken from the supplement of paper PMC3334620.
In all, about 33,000 sequences were measured (“E-score (-0.5 to 0.5)”: median about -0.053, highest 2% from about 0.37 on). Some of the results follow.

target: Hap1 (UniProt P0CE41); experiment: PBM E-score (8-mer binding enrichment) (E-score (-0.5 to 0.5)); higher = stronger / more preferred TF binding; most listed sequences are background and not binding sites; settings: protein concentration: 200 nM; construct: GST-DNA-binding domain
Chain of UniProt P0CE41 (P0CE41 whole entry, the tested form may be a part): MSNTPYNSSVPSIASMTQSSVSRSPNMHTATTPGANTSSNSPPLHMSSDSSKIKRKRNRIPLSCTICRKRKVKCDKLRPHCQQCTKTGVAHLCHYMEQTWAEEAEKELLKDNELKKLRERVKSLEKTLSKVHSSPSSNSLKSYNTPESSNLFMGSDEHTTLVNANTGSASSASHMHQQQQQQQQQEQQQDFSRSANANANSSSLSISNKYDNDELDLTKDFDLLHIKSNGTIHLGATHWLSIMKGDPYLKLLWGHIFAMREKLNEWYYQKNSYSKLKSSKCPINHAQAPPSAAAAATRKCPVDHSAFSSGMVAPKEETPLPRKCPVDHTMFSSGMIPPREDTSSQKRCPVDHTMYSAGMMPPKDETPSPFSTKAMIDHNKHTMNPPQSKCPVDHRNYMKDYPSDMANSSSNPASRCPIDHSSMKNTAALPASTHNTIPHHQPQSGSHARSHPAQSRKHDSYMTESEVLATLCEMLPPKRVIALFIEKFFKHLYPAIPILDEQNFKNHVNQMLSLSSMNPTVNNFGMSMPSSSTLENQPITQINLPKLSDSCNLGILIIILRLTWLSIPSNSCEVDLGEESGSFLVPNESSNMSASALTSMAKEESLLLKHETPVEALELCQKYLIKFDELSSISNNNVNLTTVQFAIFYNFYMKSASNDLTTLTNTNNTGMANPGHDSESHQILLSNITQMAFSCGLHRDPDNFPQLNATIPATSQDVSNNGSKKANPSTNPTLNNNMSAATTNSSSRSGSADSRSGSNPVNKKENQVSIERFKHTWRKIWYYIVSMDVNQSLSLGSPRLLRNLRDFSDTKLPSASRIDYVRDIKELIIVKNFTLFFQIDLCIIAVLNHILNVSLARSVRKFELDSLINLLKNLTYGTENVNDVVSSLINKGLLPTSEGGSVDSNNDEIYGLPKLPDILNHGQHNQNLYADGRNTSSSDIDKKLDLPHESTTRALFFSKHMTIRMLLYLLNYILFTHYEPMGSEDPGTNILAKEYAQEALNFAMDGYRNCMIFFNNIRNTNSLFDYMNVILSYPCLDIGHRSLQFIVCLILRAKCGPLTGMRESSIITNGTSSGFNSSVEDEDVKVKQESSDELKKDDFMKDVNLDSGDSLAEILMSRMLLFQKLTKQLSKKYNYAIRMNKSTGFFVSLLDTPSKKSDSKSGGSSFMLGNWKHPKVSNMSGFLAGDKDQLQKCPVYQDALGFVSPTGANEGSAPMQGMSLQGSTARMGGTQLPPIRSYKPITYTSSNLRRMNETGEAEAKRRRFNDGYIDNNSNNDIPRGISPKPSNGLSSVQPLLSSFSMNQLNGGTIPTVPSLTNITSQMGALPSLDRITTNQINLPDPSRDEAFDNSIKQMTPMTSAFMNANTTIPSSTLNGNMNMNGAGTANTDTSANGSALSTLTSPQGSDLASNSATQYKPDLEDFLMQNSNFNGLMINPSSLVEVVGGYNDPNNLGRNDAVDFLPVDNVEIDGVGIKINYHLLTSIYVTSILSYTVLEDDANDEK
Method: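 Universal 'all 10-mer' protein binding microarrays (Agilent AMADID 015681) probed with GST-tagged S. cerevisiae TFs (full-length or DBD) made by in vitro transcription/translation (PURExpress), about 100-200 nM. Bound TF was detected with fluorescent anti-GST. Each ungapped 8-mer (which stands for itself and its reverse complement) is scored by the PBM enrichment score (E-score), a modified Wilcoxon-Mann-Whitney statistic from -0.5 to +0.5, computed with the Universal PBM Analysis Suite. Scale: above 0.35 generally sequence-specific binding.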

Sequence | PBM E-score
AGTTGACC | 0.234
CCAGAGAC | -0.166
GATTTCTA | 0.203
TCATCACA | -0.389
GAAGATTA | 0.0781
AACGAATT | 0.0336
TAGGTGCA | -0.193
ACACAGCT | -0.24
CCAACAAA | -0.097
AAACCTAA | 0.0533
ACAGGAAG | -0.141
GAAGAACA | 0.066
GACTCATC | -0.17
CAGGTGCC | -0.0661
ACGCACGG | 0.162
ATTCGGTA | 0.146
GTCGATAA | -0.0382
AGATGGAC | -0.0623
ACTGAGCA | -0.292
AAAGAAGT | -0.0547
CAACTTGA | 0.0376
ATGGGGGA | -0.0747
CGTGCAGA | -0.137
CCGTGTGA | 0.0641
TCTCGGAA | 0.306

Sequence | PBM E-score
AATTAAGG | -0.0963
CATTCGAG | -0.135
AGCCAAAG | -0.282
CAGGGAAC | -0.29
AAGAACCA | -0.0356
AATACGCT | 0.0629
AATTCAGT | -0.197
AAATGTGC | 0.115
TGCGACCA | -0.0509
GGCTCCGA | 0.221
AATTACAT | 0.0504
CGGGACAA | 0.135
CATATGGC | -0.0915
ACATGAAA | -0.178
CAGATGGC | -0.0975
GGTCACTA | -0.0163
ATTTGAGG | -0.0763
GTTGGTGA | -0.132
ATTCGGAC | 0.382
GGCACCAA | 0.118
GATGTAGA | -0.107
AACGCAAC | 0.00727
ACTAATAT | 0.0405
ATCGGTCG | 0.352
GGTCTACA | -0.132

Sequence | PBM E-score
AAAGCTCG | 0.0753
GTAAATGA | -0.0599
CTGACTTA | -0.0406
ACTTCTCT | -0.183
AATTGCCC | 0.101
CTTACATC | 0.0233
TACCGTGA | 0.0524
GAGACGGA | 0.242
ACTGTCAA | -0.222
ATAGAGCG | -0.0445
CTTGAGTC | -0.0518
ATGGTGCA | -0.214
CCAGAACG | -0.0975
ACCGGTCA | 0.256
ATCGCCCG | 0.372
AGCAGGCT | -0.182
CACTGGTA | -0.185
CCATCGTC | -0.0344
GGTACACC | -0.183
AATAGAAT | -0.153
ATCACTAG | -0.158
GTACGCAC | -0.24
GAGTCCAA | -0.246
CAGCTGTA | -0.062
CACCGGTA | 0.376

Sequence | PBM E-score
TATTCGAA | -0.184
CTAGTCCC | -0.233
AATGTACT | -0.0181
CAACAGAC | -0.15
TGACGGCA | -0.0528
GTCAACAC | 0.00097
ACGGCTCG | 0.263
CAGAAAAC | -0.136
GACGGAGC | 0.178
ACAATCAA | -0.0486
CCCTAGCG | -0.291
AACGACAA | 0.0299
AAATGATG | -0.00299
CACATTCG | 0.0639
ATTACCGA | 0.348
AGTCCACG | 0.0474
ATCGGTGA | 0.214
AGATTATC | 0.00768
AATGCTCA | -0.259
CCGTTATC | 0.385
AGCGAAGG | -0.0317
CTCCCTAA | -0.155
ATGACCGC | 0.197
CTTTCCGA | 0.316
CGCGAACA | 0.0947

Sequence | PBM E-score
AATTGCTC | 0.0545
ACTGATCA | -0.132
CCGCTTTA | 0.165
GCCCGAAA | 0.342
ATAGATTA | -0.0571
CATCGCAG | -0.142
GCCGTCCA | 0.0557
AGACGCTG | -0.141
GGGTGTTA | 0.0847
GGCTTCCA | -0.0479
ATGATAAC | -0.135
ATGCAACG | -0.0754
AGGTATGA | -0.0537
ACAACGTC | 0.0546
CGCCCCTC | -0.0292
CACGGGTC | -0.015
GGATTCCA | 0.0677
GACGGTAC | 0.142
CACCATGA | 0.0355
ATCACATA | -0.0284
CAGATCTA | -0.306
GATGAGCC | 0.00556
GCGTAAGC | -0.106
CCGTGTAG | 0.0128
CAGCTATA | -0.0816

Sequence | PBM E-score
ATGCATAG | -0.269
CGCTAAGA | 0.23
CTCAGTCC | -0.097
CAACCATA | -0.174
CGCGTGCA | -0.101
CGAATCAA | 0.0153
CTGTAGTC | -0.0677
ACTAGCAG | -0.265
AGCTCTAC | -0.239
CCTTGCCA | -0.153
ATACTAAG | -0.0852
GAATTCCC | 0.0182
CCGAGAAA | 0.4
ATGCTGCC | -0.112
GAAGCGCA | 0.0591
GCCTCTAC | -0.12
AGGGTCAA | -0.0982
CCAGCAGC | -0.13
ATAAGTTA | -0.121
GGTAATAC | 0.247
AGCCCTTA | -0.128
GTCGTAAC | -0.164
ACCGATAA | 0.443
ACGTCAGT | -0.0702
GACGTATA | 0.03

Sequence | PBM E-score
CACGCCAA | -0.148
ATAAAAGC | 0.0726
AGTGGTTC | -0.034
TTACCAAA | -0.0884
GATGAGGC | -0.0801
CCTGTACG | -0.0933
AGTGTCGG | 0.311
CACGTCGG | 0.28
CAATCGGA | 0.394
AGAAAAGG | -0.0978
GATGATAC | 0.0542
TACATACA | -0.1
ATAAACGG | 0.163
GCTAATAA | 0.0364
GCCCGCGC | 0.32
AATCGTCA | -0.127
CAGGCAGG | -0.111
ACCGTAGG | -0.166
CACCCCTG | -0.165
AATCGTGA | -0.0626
CCTATCCG | 0.102
CGGCGACG | 0.255
CGCGTTAA | 0.112
GGGAGATA | 0.268
CCGATCGC | 0.169

Sequence | PBM E-score
AGAGAATC | -0.0748
CGAACACA | 0.00679
TCATCGAA | -0.0493
AGTATGAT | 0.0336
ACGTTTTG | -0.289
CGCGGTTA | 0.218
GGCGAGCA | -0.0381
CCGGTGAG | 0.249
GTCTAAAA | -0.0961
GGATTGCA | -0.00418
AAAGGTGA | -0.264
ATCCCCCA | -0.233
GCCTAAGC | -0.0891
ACTGGAAG | -0.155
GAACGCCC | 0.0549
ACGAGCGC | -0.00987
AATTTGGC | -0.0688
AATTACGT | -0.0957
ATGTGATA | -0.244
AAGACGGG | 0.0522
GACCGTAA | 0.133
AGACGGAC | 0.219
CAGCTCTC | -0.178
GCATTACC | 0.165
CAGCAGTA | -0.352

Sequence | PBM E-score
TAGGACTA | -0.0962
AAATCTTG | -0.0381
AACGTCGA | -0.199
CAAACGTG | -0.182
CACAATAG | 0.033
TAGCATAA | -0.0142
GGCCGGAA | 0.363
ACGGTAGC | -0.117
CTCGCTTC | 0.168
ACATATGG | -0.228
GGCGCAGA | -0.0243
CTACAACC | 0.0866
CGCACTCA | 0.0884
CGATAGAG | 0.259
ATTCCAAA | -0.125
TGACCACA | -0.245
GGCCGGCA | 0.345
AAACATAG | -0.21
ACTTCTAG | -0.146
CCATTGTC | 0.0509
AAGTGCGG | 0.245
ATTGGGGG | -0.153
AGCCGTAG | 0.0861
ACAATAGA | 0.00195
GCCAGTAA | -0.106

Sequence | PBM E-score
ACATGTTC | -0.146
CGGCCGCC | 0.274
AATTGTGC | -0.0759
CCTATCGA | -0.275
CTCCCACC | -0.086
CGTCAGGC | -0.0931
GAGGCCGA | 0.248
TAATAGGA | 0.0428
GCGTACGA | -0.0387
ACTTTATG | -0.17
CGTCTAGA | -0.116
GATGCCAA | -0.205
CCACGACG | -0.0495
CGTGCTCA | -0.0549
AGGGTTTA | -0.075
TCTTTAAA | -0.111
ATTGAGGG | 0.0196
AGACTCAC | -0.24
CCGCTCCC | 0.0412
ATAAGTAT | 0.0298
CTTCGTTA | -0.217
CAGGTTAG | -0.203
ATATCTAG | -0.215
ATTCGCCG | 0.295
CGCGTAAG | 0.0955

Sequence | PBM E-score
CGACACCA | -0.0201
CAGCGCCA | -0.174
CAATTATC | 0.253
GTAGCGAA | -0.0922
ACGTTAAA | -0.104
AAACTATG | -0.0719
CCCTGCGC | -0.167
TCGTGTCA | -0.212
ACTGATTA | -0.159
CGTTAAAG | 0.0984
CGTGCTTC | -0.0734
CCACGTAG | -0.147
AAGGGGCG | -0.00882
AAGACCAA | -0.186
GCGCTTCA | 0.00359
GAGACTGC | -0.024
ATCACCCC | 0.0285
AACTTATC | 0.15
GCGCGTCC | 0.0368
AGCCCAGA | -0.0529
CCTAGCCG | 0.236
CTAAAAAC | -0.064
ACAACAGA | -0.186
CGTACTTC | 0.0549
ATAGGCAG | -0.148

Sequence | PBM E-score
ACATATCG | 0.176
CGCACCTA | -0.0638
TACCCGAA | 0.28
GAGGTTCA | 0.00726
CATTTCTC | -0.0203
GCACTGCC | 0.171
TGAGAAAA | -0.148
AACCCCCA | -0.217
CAGCGGCC | 0.147
AAACCGAT | 0.305
ATGTGGTG | -0.0677
CGTTATAG | -0.0475
GCGGCTCA | 0.073
ACGACCAC | -0.134
AGAGGCGC | -0.199
GGCTAGAA | 0.00648
ACGCCCCT | -0.17
AGAGTGAA | -0.161
CGGCGCCC | 0.12
GAGCTCAA | -0.00973
AGCGGATA | 0.326
ATCGGGGA | 0.386
CGGCTCTC | 0.0925
CTAACAAG | -0.287
ACGTTCCT | -0.121

Sequence | PBM E-score
ACCAAGAG | -0.188
GGAATACA | 0.182
CTGTACAG | -0.213
AGGATCCT | -0.0816
CTTTGGGA | -0.136
GCAACAAA | -0.07
CGAAGCTA | -0.0412
CCGACAGA | 0.337
CGCCTCTA | -0.0298
CCCCACAA | -0.0864
ACATTACG | 0.0279
ATGCTTGC | -0.153
ACGGAGGA | 0.211
CCACATTA | -0.224
CGCGAGTA | 0.146
AACGACGG | 0.163
CCTCGGGC | 0.31
CATTGTGA | -0.0941
GATGACAA | -0.0665
AGGCGCTC | -0.0481
GGCCTCAC | -0.134
AAACTGTG | -0.187
ATCTGCTG | -0.18
ATATGCGA | 0.167
TAACTCAA | -0.0398

Sequence | PBM E-score
CCTTGCAG | -0.134
GCGAACAC | -0.0338
CTCCCCCA | -0.0682
CCAGGGGC | -0.248
CTCACCTC | -0.152
CATAGAGC | -0.237
AATGCACC | -0.0449
CTGGAAGC | -0.28
AAAGCTAT | 0.00647
AATTAACC | 0.244
ATAAGAAT | 0.00369
ATACGACA | -0.185
ACATTACA | -0.0941
ACCAGTAA | 0.0185
AAAGGCCA | 0.0295
AGCAACGC | 0.0695
ACTGACTC | -0.143
GATCCATA | 0.0859
ACCCGGTA | 0.376
